About 340 (0.77%) of roughly 44,000 compounds were called active. About 5% were inconclusive and are not listed. The call rests on the fitted dose curve; in most records, active means well fitted inhibition curve with a large enough effect; inconclusive means small, poorly fitted or top-dose-only effect; inactive means flat fitted curve, though single readings scatter. The list shows a part of the results.
Test: Acumen qHTS Assay for Inhibitors of the mTORC1 Signaling Pathway in MEF (Tsc2-/-, p53-/-) Cells: Sytravon;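 further: plate controls were DMSO for no effect and rapamycin for full effect; nearly all actives have a fitted effect of over 50% in size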
Conditions: phospho-rpS6 immunofluorescence/PI, 24 h; series mostly up to 38.3 µM; activity change, negative = inhibition: at the top concentration
How it was run: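 Cell-based qHTS: Tsc2-/- p53-/- MEF, 24 h cpd, 37 °C; fix/perm, anti-phospho-S6 Alexa-488 + PI; Acumen 488 nm scan; pS6/PI ratio, % positive cells; rapamycin 7.5 nM = inhibition ref; PI count = viability.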

Activity change, negative = inhibition, inactive:
N#Cc1c[nH]n2c(NC3CCCC3)c(-c3ccc(Cl)cc3)nc12 -11.7%
CCc1ccc(NC(=O)C(=O)NCCc2sc3nc(-c4ccc(OC)cc4)nn3c2C)cc1 0.358%
Cc1ccc(CNc2nc3ccc(C)cc3n3nnnc23)cc1 -3.05%
O=C(CCS(=O)(=O)c1cccc2nonc12)Nc1ccc(Br)cc1 -5.52%
Cc1ccc(NS(=O)(=O)c2ccc(-c3cc(C)no3)cc2)c(Br)c1 -5.77%
CCOc1ccccc1NC(=O)N1CCC2(CC1)Oc1ccccc1C(=O)N2Cc1ccccc1F -15%
CC1=C(C(=O)Nc2ccccc2)C(c2ccc(O)cc2)n2nc(SCc3ccccc3)nc2N1 (stereo not drawn) 2.78%
COc1ccc(Cl)cc1NC(=O)CCn1c(=O)oc2ccccc21 2.51%
O=c1[nH]c(SCc2ccc([N+](=O)[O-])cc2)nc2c1CCCC2 0.801%
Cc1ccccc1NC(=O)CSc1ccc(-c2cccs2)nn1 -4.48%
COc1ccc(NC(=O)Nc2nnc(N(CC(C)C)CC(C)C)s2)c(OC)c1 1.42%
CCN(C(=O)c1cc2c(s1)-c1ccccc1OC2)c1cccc(C(F)(F)F)c1 -8.68%
COc1ccc(NC(=O)c2cc(C3CC3)nc3c2c(C)nn3-c2ccccc2)cc1OC 0.438%
O=C(CSc1nccn1Cc1ccccc1)Nc1ccc2c(c1)OCCO2 -3.83%
Cc1ccc(CNC(=O)Cn2cccc2C(=O)c2ccccc2C)cc1 -4.35%
Cc1ccc2nc(COc3cccc(NC(=O)COc4ccc(F)cc4)c3)cc(=O)n2c1 -12.6%
Cc1ccc(NC(=O)CCS(=O)(=O)c2ccc3c(c2)oc(=O)n3C)c(Br)c1 -1.37%
Cc1cc(C)cc(-n2c(SCC(=O)NC3CCCCC3)nc3c([nH]c4ccccc43)c2=O)c1 0.669%
COc1ccc(NC(=O)c2cc3c(C)nn(-c4ccccc4)c3s2)c(OC)c1 -7.46%
Cc1c(Cl)cccc1Nc1nn2c(=O)c3ccc(C(=O)N(C)Cc4ccccc4)cc3nc2s1 0.0523%
O=c1[nH]c(SCc2c(F)cccc2Cl)nc2c1CCCC2 -24.3%
COc1ccc(-c2nc(CSCC(=O)N3CCN(c4ccccc4)CC3)c(C)o2)cc1 -8.2%
CC(=O)c1cccc(NS(=O)(=O)c2cccc(S(=O)(=O)c3ccc(Br)cc3)c2)c1 3.24%
COCCNC(=O)c1[nH]c2cc(C)ccc2c1Sc1ccc(Cl)cc1 0.305%
O=C(COc1ccccc1)OCc1cc(=O)n2nc(-c3cccs3)sc2n1 5.78%
Cc1c(Cl)cccc1NC(=O)c1cc2nc(-c3ccc4c(c3)OCO4)cc(C(F)(F)F)n2n1 -4.95%
Cc1ccccc1NC(=O)c1ccc(N(Cc2ccccc2)S(C)(=O)=O)cc1 11.8%
COc1ccc(CNC(=O)c2cnc3ccc(C)cn3c2=O)cc1 0.605%
CCc1nn(CC(=O)NC(C)CC)c(=O)c2cc3occc3n12 (stereo not drawn) -6.42%
CC(C)(C)OC(=O)N1CCC(c2c(C(=O)Nc3ccc4c(c3)OCO4)cnn2-c2ccccc2)CC1 -4.52%
O=C(NCc1ccc2c(c1)CCN2C(=O)c1ccncc1)c1ccccc1F -3.8%
COc1cccc(OCCn2c(-c3ccc(Br)cc3)nc3ccccc3c2=O)c1 -19.5%
COC(=O)c1ccccc1NC(=O)CCS(=O)(=O)c1nc(-c2ccc3c(c2)OCO3)cc(C(F)(F)F)n1 -14.6%
COC(=O)c1c(-c2cccs2)csc1NC(=O)c1ccc(C(C)C)cc1 0.939%
COc1ccccc1CNc1ncnc2c1nnn2C -1.15%
CCOCCCn1c(=N)c(S(=O)(=O)c2ccc(Cl)cc2)cc2c(=O)n3cccc(C)c3nc21 6.82%
O=C(NCc1ccc(F)cc1)c1ccc2oc(=O)n(Cc3ccccc3)c2c1 -23%
COc1ccccc1NC(=O)C(=O)NCC(c1cccnc1)N1CCc2ccccc2C1 (stereo not drawn) 10.5%
COc1cccc(CNC(=O)Cn2c(=O)oc3cc(S(=O)(=O)N4CCCCCC4)ccc32)c1 1.36%
COC(=O)c1ccc(NC(=O)CCc2c(C)nn(-c3ccc(N4CCCCC4)nn3)c2C)cc1 -15.8%
CC(=O)Nc1nonc1-c1nnc(SCc2ccccc2)n1C -0.889%
COc1ccc(-n2nc(C(=O)Nc3cc(C)ccn3)c3c4ccccc4n(C)c3c2=O)cc1Cl 1.61%
CCOc1ccc(-c2cc(C(=O)NCCc3ccc(OC)c(OC)c3)[nH]n2)cc1 -6.26%
CN1CC(=O)N(CC(=O)Nc2ccc(OC(F)(F)F)cc2)c2ccccc2C1=O -1.66%
CCc1ccc(NC(=O)Cn2c(=O)c3cc(Cl)ccc3n3nncc23)cc1 -4.04%
COC(=O)c1cccc(CN2C(=O)SC(Nc3ccc(C)cc3)C2=O)c1 (stereo not drawn) -17.1%
Cc1ccccc1CNC(=O)C(=O)NCC(c1cccs1)S(=O)(=O)c1cccs1 (stereo not drawn) -4.29%
C=Cc1ccc(Cn2c(SCC(=O)N3CCN(c4ccc(F)cc4)CC3)nc3ccccc32)cc1 -5.72%
O=c1c2oc3ccccc3c2n(Cc2cccc(F)c2)c(=O)n1Cc1ccc2c(c1)OCO2 -2.8%
Cc1cccc(NC(=O)/C(C#N)=C/c2ccc(C)o2)c1 4.91%
CCOC(=O)c1ccc(NC(=O)CCc2nc3cccnc3n2Cc2cccs2)cc1 -15.2%
COc1cc(C2CC(=O)Nc3c2c(=O)n(C)c2ncnn32)cc(OC)c1OC (stereo not drawn) -8.95%
CCC(=O)Nc1cccc(-c2nc3cc(C)ccc3o2)c1 0.891%
CC(=O)c1ccc(N2CCN(c3ccc4cc(S(=O)(=O)N5CCC(C)CC5)ccc4n3)CC2)cc1 7.15%
CSc1ccc(CCNC(=O)c2c(C)oc3ncn(C)c(=O)c23)cc1 -11%
Cc1cccc(Cn2c(Cc3ccccc3)nc3ccccc32)c1 1.76%
O=C(CN1c2ccccc2S(=O)(=O)c2ccccc21)Nc1cccc(C(F)(F)F)c1 0%
CCOC(=O)c1cnc(N2CCN(c3ccc(OC)cc3)CC2)c2ccccc12 2.07%
CCOC(=O)c1c(S(=O)(=O)NCC(=O)N(C)Cc2ccccc2)c(C)n(C)c1C 2.59%
CCN1CCN(c2ncnc3c2cnn3-c2cc(Cl)ccc2C)CC1 0.73%
CC1CCN(S(=O)(=O)c2csc(C(N)=O)c2)CC1 -2.99%
COc1ccccc1N1CCN(c2ncnc3c2c(-c2ccccc2)cn3-c2cccc(C)c2)CC1 2.43%
Cc1ccc(CSc2nc3cccnc3n2Cc2ccc(C(=O)NC3CCCCC3)cc2)cc1 -7.54%

— PubChem BioAssay AID493208 (National Center for Advancing Translational Sciences (NCATS), 2011)
